# Some of the results follow. Repeats are few or missing, and single values can be far off.
# Test system: A375
# Experiment: cell count relative to DMSO control; melanoma cells; higher = more viable cells
# Details: library dose: standard library concentration; 72 h
# 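Also: cells treated in 1,536-well plates, then fixed and DAPI-stained, with nuclei counted from automated high-throughput microscope images.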
row,SMILES,cell count [%]
1,"CS(=O)(=O)c1ccc(C(=O)Nc2ccc(Cl)c(-c3ccccn3)c2)c(Cl)c1 [vismodegib] + O=C(O)c1ccc(-c2c[nH]c3ncc(-c4ccccc4)cc23)cc1C1CCCC1 [GSK650394] (first compound 5 µM, partner dose 0.8 µM)",110
2,"NC1(c2ccc(-c3nc4ccn5c(=O)[nH]nc5c4cc3-c3ccccc3)cc2)CCC1 + CO[C@@H]1[C@H](N(C)C(=O)c2ccccc2)C[C@H]2O[C@]1(C)n1c3ccccc3c3c4c(c5c6ccccc6n2c5c31)C(=O)NC4 [Midostaurin] (first compound 2 µM, partner dose 0.4 µM)",67.2
3,"CN(c1ncccc1CNc1nc(Nc2ccc3c(c2)CC(=O)N3)ncc1C(F)(F)F)S(C)(=O)=O + Nc1ncn([C@H]2C[C@H](O)[C@@H](CO)O2)c(=O)n1 [decitabine] (first compound 0.4 µM, partner dose 0.5 µM)",68.2
4,"CN(c1ncccc1CNc1nc(Nc2ccc3c(c2)CC(=O)N3)ncc1C(F)(F)F)S(C)(=O)=O + Cn1c(Nc2ccc(C(F)(F)F)cc2)nc2cc(Oc3ccnc(-c4ncc(C(F)(F)F)[nH]4)c3)ccc21 [CHIR265] (first compound 0.4 µM, partner dose 0.4 µM)",75.3
5,"NC1(c2ccc(-c3nc4ccn5c(=O)[nH]nc5c4cc3-c3ccccc3)cc2)CCC1 + O=C(Nc1cccc(Cl)c1)Nc1ncc(CCNc2ncnc3ccsc23)s1 [SNS314] (first compound 2 µM, partner dose 0.004 µM)",97.5
6,"CCCS(=O)(=O)Nc1ccc(F)c(C(=O)c2c[nH]c3ncc(Cl)cc23)c1F + Clc1ccc(Nc2nnc(Cc3ccncc3)c3ccccc23)cc1 [vatalanib] (first compound 0.4 µM, partner dose 10 µM)",85.5
7,"NC1(c2ccc(-c3nc4ccn5c(=O)[nH]nc5c4cc3-c3ccccc3)cc2)CCC1 + C[C@@H](Oc1cc(-c2cnn(C3CCNCC3)c2)cnc1N)c1c(Cl)ccc(F)c1Cl [Crizotinib] (first compound 2 µM, partner dose 1 µM)",98.6
8,"CN(c1ncccc1CNc1nc(Nc2ccc3c(c2)CC(=O)N3)ncc1C(F)(F)F)S(C)(=O)=O + Cn1nnc2c(C(N)=O)ncn2c1=O [temozolomide] (first compound 0.4 µM, partner dose 10 µM)",71.9
9,"NC1(c2ccc(-c3nc4ccn5c(=O)[nH]nc5c4cc3-c3ccccc3)cc2)CCC1 + Cn1c(=O)n(-c2ccc(C(C)(C)C#N)cc2)c2c3cc(-c4cnc5ccccc5c4)ccc3ncc21 [NVP-BEZ235] (first compound 2 µM, partner dose 0.02 µM)",63.5
10,"C=C(c1ccc(C(=O)O)cc1)c1cc2c(cc1C)C(C)(C)CCC2(C)C [Bexarotene] + C#Cc1cccc(Nc2ncnc3cc(OCCOC)c(OCCOC)cc23)c1 [erlotinib] (first compound 10 µM, partner dose 4 µM)",122
11,"CCCS(=O)(=O)Nc1ccc(F)c(C(=O)c2c[nH]c3ncc(Cl)cc23)c1F + CC1(C)NC(=O)N(c2ccc([N+](=O)[O-])c(C(F)(F)F)c2)C1=O [nilutamide] (first compound 0.4 µM, partner dose 5 µM)",97
12,"NC1(c2ccc(-c3nc4ccn5c(=O)[nH]nc5c4cc3-c3ccccc3)cc2)CCC1 + C#Cc1cccc(Nc2ncnc3cc(OCCOC)c(OCCOC)cc23)c1 [erlotinib] (first compound 2 µM, partner dose 4 µM)",81.5
13,"CCCS(=O)(=O)Nc1ccc(F)c(C(=O)c2c[nH]c3ncc(Cl)cc23)c1F + OCCn1cc(-c2cnc3nnn(Cc4ccc5ncccc5c4)c3n2)cn1 [PF04217903] (first compound 0.4 µM, partner dose 5 µM)",94.9
14,"CS(=O)(=O)c1ccc(C(=O)Nc2ccc(Cl)c(-c3ccccn3)c2)c(Cl)c1 [vismodegib] + Nc1nc(F)nc2c1ncn2[C@@H]1O[C@H](CO)[C@@H](O)[C@@H]1O [fludarabine] (first compound 5 µM, partner dose 1 µM)",27.2
15,"NC1(c2ccc(-c3nc4ccn5c(=O)[nH]nc5c4cc3-c3ccccc3)cc2)CCC1 + C[C@]1(c2nc3c(C(N)=O)cccc3[nH]2)CCCN1 [Veliparib] (first compound 2 µM, partner dose 7 µM)",94.2
16,"CS(=O)(=O)c1ccc(C(=O)Nc2ccc(Cl)c(-c3ccccn3)c2)c(Cl)c1 [vismodegib] + C#Cc1cccc(Nc2ncnc3cc(OCCOC)c(OCCOC)cc23)c1 [erlotinib] (first compound 5 µM, partner dose 4 µM)",106
17,"CCCS(=O)(=O)Nc1ccc(F)c(C(=O)c2c[nH]c3ncc(Cl)cc23)c1F + NC(=O)Nc1cc(-c2cccc(F)c2)sc1C(=O)N[C@H]1CCCNC1 [AZD7762] (first compound 0.4 µM, partner dose 0.1 µM)",56.8
18,"C=C(c1ccc(C(=O)O)cc1)c1cc2c(cc1C)C(C)(C)CCC2(C)C [Bexarotene] + COc1ccc(Cl)c(Nc2nc3ccccc3nc2NS(=O)(=O)c2cccc(NC(=O)C(C)(C)N)c2)c1 [XL147] (first compound 10 µM, partner dose 4 µM)",93
19,"NC1(c2ccc(-c3nc4ccn5c(=O)[nH]nc5c4cc3-c3ccccc3)cc2)CCC1 + Nc1cccc2c1CN(C1CCC(=O)NC1=O)C2=O [lenalidomide] (first compound 2 µM, partner dose 5 µM)",108
20,"NC1(c2ccc(-c3nc4ccn5c(=O)[nH]nc5c4cc3-c3ccccc3)cc2)CCC1 + O=C(O)c1ccc(-c2c[nH]c3ncc(-c4ccccc4)cc23)cc1C1CCCC1 [GSK650394] (first compound 2 µM, partner dose 0.8 µM)",109
21,"C=C(c1ccc(C(=O)O)cc1)c1cc2c(cc1C)C(C)(C)CCC2(C)C [Bexarotene] + O=C(Nc1cccc(Cl)c1)Nc1ncc(CCNc2ncnc3ccsc23)s1 [SNS314] (first compound 10 µM, partner dose 0.004 µM)",103
22,"CCCS(=O)(=O)Nc1ccc(F)c(C(=O)c2c[nH]c3ncc(Cl)cc23)c1F + NCC(=O)Nc1ccc(-n2nc(C(F)(F)F)cc2-c2ccc3c(ccc4ccccc43)c2)cc1 [OSU03012] (first compound 0.4 µM, partner dose 5 µM)",46.6
23,"NC1(c2ccc(-c3nc4ccn5c(=O)[nH]nc5c4cc3-c3ccccc3)cc2)CCC1 + C=C(c1ccc(C(=O)O)cc1)c1cc2c(cc1C)C(C)(C)CCC2(C)C [Bexarotene] (first compound 2 µM, partner dose 10 µM)",118
24,"CCCS(=O)(=O)Nc1ccc(F)c(C(=O)c2c[nH]c3ncc(Cl)cc23)c1F + COc1cc(Nc2ncc(F)c(Nc3ccc4c(n3)NC(=O)C(C)(C)O4)n2)cc(OC)c1OC [Tamatinib] (first compound 0.4 µM, partner dose 2 µM)",79.1

# — the supplement of paper PMC4604168 (melanoma cell lines)
